Source: a collection of fitness landscapes (doi:10.1126/science.1257360)
Some of the results follow.

B1: PhoQ; a variant is named by its letters at X, in order, P23837 (parent)
chain: MKKLLRLFFPLSLRVRFLLATAAVVLVLSLAYGMVALIGYSVSFDKTTFRLLRGESNLFYTLAKWENNKLHVELPENIDKQSPTMTLIYDENGQLLWAQRDVPWLMKMIQPDWLKSNGFHEIEADVNDTSLLLSGDHSIQQQLQEVREDDDDAEMTHSVAVNVYPATSRMPKLTIVVVDTIPVELKSSYMVWSWFIYVLSANLLLVIPLLWVAAWWSLRPIEALAKEVRELEEHNRELLNPATTRELTSLVRNLNRLLKSERERYDKYRTTLTDLTHSLKTPLXXLQXXLRSLRSEKMSVSDAEPVMLEQISRISQQIGYYLHRASMRGGTLLSRELHPVAPLLDNLTSALNKVYQRKGVNISLDISPEISFVGEQNDFVEVMGNVLDNACKYCLEFVEISARQTDEHLYIVVEDDGPGIPLSKREVIFDRGQRVDTLRPGQGVGLAVAREITEQYEGKIVAGESMLGGARMEVIFGRQHSAPKDE

Variants of: B1
Experiment: enrichment ratio after two sorts for PhoP signalling (ratio (wild type AVST 3.29)); higher = more functional
Conditions: with PhoP (E. coli)

Variant	enrichment ratio
LEFL	1.22
RKYE	≤ 0.25
HHMT	≤ 0.25
VATV	≤ 0.25
FAFM	≤ 0.25
VLVI	≤ 0.25
NNWK	≤ 0.25
WRWC	≤ 0.25
STIY	1.72
SNHT	≤ 0.25
WMNW	≤ 0.25
KDAD	≤ 0.25
DKWY	≤ 0.25
ARHR	≤ 0.25
MRTQ	≤ 0.25
VACA	≤ 0.25
GDDI	≤ 0.25
SDPA	≤ 0.25
ESYR	≤ 0.25
REIP	≤ 0.25
GCTW	≤ 0.25
FLCI	0.953
VWWH	≤ 0.25
GWYR	≤ 0.25

Variant	enrichment ratio
GPYM	≤ 0.25
AMRG	≤ 0.25
WPMF	≤ 0.25
WRRQ	≤ 0.25
LQDW	≤ 0.25
PYGV	≤ 0.25
DHQW	≤ 0.25
CRLI	≤ 0.25
DQWA	≤ 0.25
SWWA	≤ 0.25
LEYY	≤ 0.25
PFFV	≤ 0.25
QAFT	≤ 0.25
QQWI	≤ 0.25
QLFK	≤ 0.25
GVNR	≤ 0.25
LCES	≤ 0.25
FEMN	5.19
TVHT	≤ 0.25
ENDY	≤ 0.25
YIKC	≤ 0.25
VLFC	≤ 0.25
PLEK	≤ 0.25
LKEG	≤ 0.25

Variant	enrichment ratio
YVIF	≤ 0.25
QKMY	≤ 0.25
AVIR	1.06
HPYV	≤ 0.25
RVQM	≤ 0.25
DHSH	≤ 0.25
LLRW	≤ 0.25
GYGG	≤ 0.25
QTQM	≤ 0.25
FSHQ	≤ 0.25
FSFE	≤ 0.25
NQGL	≤ 0.25
DNID	≤ 0.25
HDVW	≤ 0.25
DWTK	≤ 0.25
PMIQ	≤ 0.25
MMLD	≤ 0.25
MKFN	≤ 0.25
MMHN	≤ 0.25
IGRP	≤ 0.25
EFKS	≤ 0.25
EECL	≤ 0.25
SKTG	≤ 0.25
HSNK	≤ 0.25

Variant	enrichment ratio
VHLH	≤ 0.25
IECN	≤ 0.25
AHFI	≤ 0.25
QSGP	≤ 0.25
PMSN	≤ 0.25
RDVH	≤ 0.25
EKVR	≤ 0.25
EGFC	≤ 0.25
GFNN	≤ 0.25
TNIG	≤ 0.25
PYFT	≤ 0.25
RIIS	≤ 0.25
HMWN	≤ 0.25
HTYK	≤ 0.25
WIVT	≤ 0.25
KHAR	≤ 0.25
PSHI	≤ 0.25
FEWF	≤ 0.25
DVAF	≤ 0.25
ANIL	22.8
TILY	≤ 0.25
KCIL	≤ 0.25
LTEG	≤ 0.25
YETF	≤ 0.25

Variant	enrichment ratio
SMNA	≤ 0.25
TGNC	61.8
WEGN	≤ 0.25
FDAH	≤ 0.25
TLEL	3.77
WYIK	≤ 0.25
YSCA	≤ 0.25
VQKF	≤ 0.25
QFAA	≤ 0.25
QDRH	≤ 0.25
GRQC	≤ 0.25
QFQW	≤ 0.25
NFCH	≤ 0.25
IHAA	≤ 0.25
TCYM	12.1
TGPC	≤ 0.25
NGPH	≤ 0.25
STGC	5.24
MGKT	≤ 0.25
PMGS	≤ 0.25
IQIG	≤ 0.25
RGMI	≤ 0.25
HKVD	≤ 0.25
TECL	9.66

Variant	enrichment ratio
ICGG	≤ 0.25
QAAR	≤ 0.25
NLHC	≤ 0.25
IQYS	≤ 0.25
DMPV	≤ 0.25
AFCG	11.4
KSIT	≤ 0.25
MIVN	≤ 0.25
VNKP	≤ 0.25
RFKA	≤ 0.25
VWKH	≤ 0.25
ETHD	≤ 0.25
SWHC	≤ 0.25
ADPL	≤ 0.25
SFQV	≤ 0.25
LFDH	≤ 0.25
ARLT	0.509
FYFF	≤ 0.25
YLYN	≤ 0.25
PKNV	≤ 0.25
HFIW	≤ 0.25
LQPF	≤ 0.25
IWNT	≤ 0.25
ASFV	≤ 0.25

Variant	enrichment ratio
TQDL	≤ 0.25
IFLH	≤ 0.25
FVVR	0.322
MNDF	≤ 0.25
IMWG	≤ 0.25
KTYT	≤ 0.25
EVNN	≤ 0.25
ETPM	≤ 0.25
VCDT	≤ 0.25
VGYN	≤ 0.25
PAYD	≤ 0.25
AISY	5.51
AIQC	≤ 0.25
DNGV	≤ 0.25
YRQH	≤ 0.25
DYIP	≤ 0.25
QVTA	≤ 0.25
RRDH	≤ 0.25
NQPA	≤ 0.25
VKNI	≤ 0.25
FFDL	≤ 0.25
IQVH	≤ 0.25
QATR	≤ 0.25
FEKK	≤ 0.25

Variant	enrichment ratio
KHQS	≤ 0.25
LMRG	≤ 0.25
QLAY	≤ 0.25
MMYF	≤ 0.25
RCRM	≤ 0.25
DMFR	≤ 0.25
HRFY	≤ 0.25
PWTM	≤ 0.25
SVCM	14.2
FWSC	≤ 0.25
ECLN	≤ 0.25
YPFQ	≤ 0.25
AMQK	≤ 0.25
VVST	≤ 0.25
RFKV	≤ 0.25
ERPR	≤ 0.25
PGNC	≤ 0.25
WWSN	≤ 0.25
NVEH	≤ 0.25
VGHG	≤ 0.25
EDFS	≤ 0.25
QCTS	≤ 0.25
KFIM	≤ 0.25
NMGG	≤ 0.25

Variant	enrichment ratio
PSDC	≤ 0.25
RRMM	≤ 0.25
WSNL	≤ 0.25
RIDT	≤ 0.25
TNVC	≤ 0.25
YVGV	≤ 0.25
MPTL	≤ 0.25
RGTG	≤ 0.25
HDES	≤ 0.25
WFED	≤ 0.25
ASHC	≤ 0.25
HIPK	≤ 0.25
FASA	≤ 0.25
KRPY	≤ 0.25
VPDQ	≤ 0.25
WVKI	≤ 0.25
RVWY	≤ 0.25
SGRV	≤ 0.25
YYKC	≤ 0.25
PCLI	≤ 0.25
LGAM	≤ 0.25
AGDE	≤ 0.25
ADAY	≤ 0.25
TATV	13.6

Variant	enrichment ratio
SVNF	8.6
VYFH	≤ 0.25
WTTH	≤ 0.25
WSFY	≤ 0.25
LWPC	≤ 0.25
YNAR	≤ 0.25
HYVQ	≤ 0.25
RIAK	≤ 0.25
MVTD	≤ 0.25
PTSM	≤ 0.25
QGSH	9.79
KFPY	≤ 0.25
GFKK	≤ 0.25
GLNH	≤ 0.25
GSQY	≤ 0.25
QYYS	≤ 0.25
NPMN	≤ 0.25
VHFF	≤ 0.25
PMVA	≤ 0.25
SLCW	0.501
VKEY	≤ 0.25
SEHF	≤ 0.25
SLWP	≤ 0.25
AIQM	≤ 0.25

Variant	enrichment ratio
VCNF	≤ 0.25
FMWI	≤ 0.25
FHSE	≤ 0.25
ILGG	≤ 0.25
RQPA	≤ 0.25
SFVN	≤ 0.25
GNVG	2.06
DMML	≤ 0.25
VCTC	≤ 0.25
GAKI	≤ 0.25
FIGG	≤ 0.25
QGFC	8.27
LDIH	≤ 0.25
NFNG	≤ 0.25
SNFM	≤ 0.25
LSYW	≤ 0.25
GPTQ	≤ 0.25
NASV	≤ 0.25
PCVR	≤ 0.25
ISPS	≤ 0.25
WMKR	≤ 0.25
LGCS	≤ 0.25
ENTN	≤ 0.25
IADA	≤ 0.25

Variant	enrichment ratio
NRNA	≤ 0.25
MMCK	≤ 0.25
ILWH	≤ 0.25
HQRC	≤ 0.25
PMWC	1.62
DLQN	≤ 0.25
KMIE	≤ 0.25
ECES	≤ 0.25
VGMN	≤ 0.25
AEYG	36.3
IMPS	≤ 0.25
MHSR	≤ 0.25
MAPM	≤ 0.25
VRKM	≤ 0.25
GRNS	≤ 0.25
TCCV	8.17
TECP	≤ 0.25
HLLV	≤ 0.25
SYPF	≤ 0.25
YSMA	≤ 0.25
KIRW	≤ 0.25
KNQY	≤ 0.25
RIDW	≤ 0.25
TENK	5.62

Variant	enrichment ratio
MWLA	≤ 0.25
QYPF	≤ 0.25
TLLA	0.849
IHTK	≤ 0.25
MPTR	≤ 0.25
SDDK	≤ 0.25
VMQK	≤ 0.25
LPGF	≤ 0.25
YTAN	≤ 0.25
EIYT	≤ 0.25
DKIV	≤ 0.25
RTPC	≤ 0.25
VPSE	≤ 0.25
ANFA	≤ 0.25
MMND	≤ 0.25
QIWM	≤ 0.25
VMGK	≤ 0.25
KPSH	≤ 0.25
